Experimental data as given in the RNAGym collection of RNA variant scans (doi:10.1073/pnas.2313332121).
Variants at the background level are over-represented here.

B1: TPR 5TU (parent)
chain: GGAUCUUCUCGAUCUAACAAAAAAGACAAAUCUGCCACAAAGCUUGAGAGCAUCUUCGGAUGCAGAGGCGGCAGCCUUCGGUGGCGCGAUAGCGCCAACGUUCUCAACUAUGACACGCAAAACGCGUGCUCCGUUGAAUGGAGUUUAUCAUG

Variants of: B1
Assay: polymerase ribozyme fitness, log enrichment relative to wild type (log ratio); higher = more active; in vitro selection for triplet polymerase activity
Procedure, shortened: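 Mutant libraries for each subunit of a heterodimeric triplet polymerase ribozyme were made by PCR and then transcribed. Each library underwent one round of in vitro selection in triplicate: annealing with a biotinylated primer, the partner subunit and triplets, frozen incubation at −7 °C, gel excision of extended constructs, streptavidin-bead capture and RT-PCR. Input and output libraries were Illumina-sequenced, and only genotypes with ≥10 input reads and ≥1 read per output were kept. Fitness is the logarithm, base 2, of genotype enrichment over wild-type enrichment, computed from inverse-variance-weighted replicate averages.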

Variant | polymerase ribozyme fitness (log ratio)
A3U A19C A52C C54U C87A G100U A115C | ≤ -4.2
A3U A19C C76G G84U C116A | ≤ -4.2
A3U A19U A49U C51U G68A C93U C125A | ≤ -4.2
A3U A20C A26U C57G C108U | ≤ -4.2
A3U A20U A41G A49G A64U C108G | ≤ -4.2
A3U A20U C32U G70U G84U A120C | ≤ -4.2
A3U A20U G50C | ≤ -4.2
A3U A21C G62C C63U A73U C79U G84A C93G A106U U145G | ≤ -4.2
A3U A21G A24C U33G C54G G133C | ≤ -4.2
A3U A21G U33G C43G C95G A113C A147U | ≤ -4.2
A3U A21G U56C A64C C93A C96U C99A | ≤ -4.2
A3U A22U A26U A49G U55C G88U C93G | ≤ -4.2
A3U A22U A28G U61G G94A A98U C99A C125A U134G | ≤ -4.2
A3U A22U A39G A40U U55A G65C G88U A91C C108A C125A U144A | ≤ -4.2
A3U A22U A49U C87U A91U | ≤ -4.2
A3U A23C | -3.76
A3U A23C A40C C75G G83A C131A | ≤ -4.2
A3U A23G A37C U61G A73U C103A | ≤ -4.2
A3U A23G C38U U56A G58U C87G C118A | ≤ -4.2
A3U A23U C75G C85U U101C | ≤ -4.2
A3U A23U G94A | ≤ -4.2

Variant | polymerase ribozyme fitness (log ratio)
A3U A23U U61A U78G C85U G126A | ≤ -4.2
A3U A24G G46A U53A U109G | ≤ -4.2
A3U A24U A91U C99U U127G G143A | ≤ -4.2
A3U A26G U61A G92A | ≤ -4.2
A3U A26U C38U C87A C96U C123U | ≤ -4.2
A3U A26U G48U U55G C103A G126A | ≤ -4.2
A3U A26U U82A C129G G136A | ≤ -4.2
A3U A26U U82G C131G U135A | ≤ -4.2
A3U A28C C57A C93U G133U | ≤ -4.2
A3U A28C C75G | ≤ -4.2
A3U A28C G50A G67U A89U G141C | ≤ -4.2
A3U A28G C35G U56A G68C C87A C105G A121U | ≤ -4.2
A3U A28U G50C U56A G68A C96U G136U U139G | ≤ -4.2
A3U A29C C43G C54G A73G C85G U90C G92U C99U A107G C116U U148C | ≤ -4.2
A3U A29G A49C G92A G124U G140A | ≤ -4.2
A3U A29U A41C U45A A52U A91U C118G G143A | ≤ -4.2
A3U A29U U31A C36G G68U G84U G117C | ≤ -4.2
A3U A30G C96A U101G A119U G152C | ≤ -4.2
A3U A30U G86U C87U | ≤ -4.2
A3U A37C A49G C93U | ≤ -4.2
A3U A39C C76G C93U A142C C149U | ≤ -4.2

Variant | polymerase ribozyme fitness (log ratio)
A3U A41C C75G A91C A98U U144C | ≤ -4.2
A3U A47C A52C C85U C132U | ≤ -4.2
A3U A47C C69A G74A U77C A89U C96G C108G | ≤ -4.2
A3U A47C C93U C118U | -2.05
A3U A49G | -0.232
A3U A49G C105U C108G | ≤ -4.2
A3U A52C G80A G83A C93G | ≤ -4.2
A3U A60G U77C G83A G88U U104C A122C | ≤ -4.2
A3U A64G G83A C93A A142C G143A U144G | ≤ -4.2
A3U A91G G100U U101G C132G U139C | ≤ -4.2
A3U A122U G133U | ≤ -4.2
A3U A142C | -1.59
A3U C5G A19U C36U G83A | -3.1
A3U C5G C18U U31A C76U G94U | -1.46
A3U C5G C32A C43A G84A G133A | ≤ -4.2
A3U C5U A24G C27A A29C A52C G84A U104G U127A | ≤ -4.2
A3U C8A G70A C85U U134A U139A U144C G152U | ≤ -4.2
A3U C8A U13G A29C C57U G68C C85A C118G | ≤ -4.2
A3U C8A U13G U90A C93A A107G G143C | ≤ -4.2
A3U C8G | ≤ -4.2
A3U C8G A16C A37C U45A C57A C87U A121G U139A U145C G152A | ≤ -4.2

Variant | polymerase ribozyme fitness (log ratio)
A3U C8U A20G A97U | ≤ -4.2
A3U C8U U45G G58A G62U C63G C87A A120U | ≤ -4.2
A3U C10U A39U U55A C57U G59C C93U C149A | ≤ -4.2
A3U C10U C54A U55A | -1.97
A3U C14G A28C A91U A97C A122C | ≤ -4.2
A3U C14G A30U U55G C95U | ≤ -4.2
A3U C14G A41U C93A U146G A150U | ≤ -4.2
A3U C14G A73G G88C A91G C93A C96U | ≤ -4.2
A3U C14G G50C C85U G88A | ≤ -4.2
A3U C14U A24G A47C C103G | ≤ -4.2
A3U C14U A40U A52U G84A G112C | ≤ -4.2
A3U C18G A47G U61G A91U A97G | ≤ -4.2
A3U C18U A20C A30C A41C C69U G94A C103G | ≤ -4.2
A3U C18U G50A G68A C76A G92C C93U | ≤ -4.2
A3U C18U G88A C93G U139G A147C | ≤ -4.2
A3U C27U G46C G68U A89C G92A C116A | ≤ -4.2
A3U C27U G59U U77A G92U A110G C116G | ≤ -4.2
A3U C27U U44A G94A C95U A107C A147U C149G | ≤ -4.2
A3U C32G A49U | ≤ -4.2
A3U C32U G34U G81U C87G | ≤ -4.2
A3U C35A C43A A52G G88A C108G | ≤ -4.2
